{"source": "ChEMBL document CHEMBL4888484", "about": "“Replenishing the malaria drug discovery pipeline: Screening and hit evaluation of the MMV Hit Generation Library 1 (HGL1) against asexual blood stage Plasmodium falciparum ,using a nano luciferase reporter read-out” (2022)", "note": "In all, about 150,000 compounds went through this assay and about 540 (0.36%) showed an effect of 50% or more. The list shows a part of the results.", "data": [{"system": "Plasmodium falciparum", "experiment": "Primary screen in NF54 nanoGlo assay, in single point, at 2uM, 72h; a lower Z score goes with more inhibition", "format": "functional, Erythrocyte", "settings": "timepoint 72 hour", "units": {"% Inhibition": "%"}, "values": [{"compound": "Cc1nc(CN(C)CC2(CO)CCOCC2)no1", "% Inhibition": -12, "Z score": 1.65}, {"compound": "CCn1cc(NC(=O)N[C@@H](C)C2=CCCCC2)c(C)n1", "% Inhibition": -12, "Z score": 1.44}, {"compound": "O=S(=O)(c1cccs1)N1CCC[C@H](c2nc(-c3ccccc3)c[nH]2)C1", "% Inhibition": 3, "Z score": -0.44}, {"compound": "COCC[C@]1(NC(=O)Nc2cccc(C)c2)CCN(C(=O)COc2ccc(OC)cc2)C1", "% Inhibition": -6, "Z score": 0.85}, {"compound": "Cc1ccc(-c2nc(-c3cc4c(C)nn(-c5ccccc5)c4s3)no2)s1", "% Inhibition": 20, "Z score": -2.33}, {"compound": "Cc1noc(C2(NC(=O)Nc3cnc4c(c3)COCC4)CCOCC2)n1", "% Inhibition": -7, "Z score": 1.1}, {"compound": "Cc1nc(CCNC(=O)Nc2ccccc2-c2ccccc2)c(C)o1", "% Inhibition": -2, "Z score": 0.22}, {"compound": "COc1ccc(CCc2nc(-c3cnn(C)c3)no2)cc1", "% Inhibition": -4, "Z score": 0.59}, {"compound": "O=C(C1CCC1)N(Cc1nccn1Cc1cccc(Cl)c1)C1CCCCC1", "% Inhibition": -3, "Z score": 0.29}, {"compound": "Cn1cnnc1CNC1CC(c2ccccc2)C1(C)C", "note": "(stereo not given)", "% Inhibition": -10, "Z score": 1.56}, {"compound": "CC[C@@H](C(=O)N1CCc2nc(N3CCN(C4CCCCC4)CC3)nc(N(C)C)c2C1)c1ccccc1", "% Inhibition": -5, "Z score": 0.94}, {"compound": "CCC(C)NC(=O)C1CCN(c2ccc(F)c(Cl)c2)C1=O", "note": "(stereo not given)", "% Inhibition": -14, "Z score": 1.68}, {"compound": "CC(C)n1cc2c(n1)C[C@@H](NC(=O)c1ccccc1N(C)C)CC2", "% Inhibition": 4, "Z score": -0.77}, {"compound": "O=C(c1cn(C2CCC2)nn1)N1CCc2c(cnn2-c2ccccc2)C1", "% Inhibition": 1, "Z score": -0.17}, {"compound": "CC1CN(c2cccc(F)c2)CCN1C(=O)CC1CCCS(=O)(=O)C1", "note": "(stereo not given)", "% Inhibition": -8, "Z score": 1.09}, {"compound": "CC(C)S(=O)(=O)NC[C@H](Cc1cccc(F)c1)N1CCCC1=O", "% Inhibition": -11, "Z score": 1.25}, {"compound": "Cc1cc([C@]2(C)NC(=O)N(CC(=O)Nc3c(C)cccc3C)C2=O)c(C)o1", "% Inhibition": -9, "Z score": 1.03}, {"compound": "CCOCC(=O)Nc1cccc2c1OCCN2C(=O)COCC", "% Inhibition": -14, "Z score": 1.45}, {"compound": "Cc1ccccc1-c1ncc(CN2C[C@H](O)[C@@H](N3CCCCC3)C2)cn1", "% Inhibition": -4, "Z score": 0.8}, {"compound": "CCOc1ccc(CNCCn2cnc(C)c2C)cn1", "% Inhibition": -7, "Z score": 0.72}, {"compound": "COCCN1C(=O)N[C@@](Cc2ccccc2Cl)(C2CCN(C(=O)c3cccs3)CC2)C1=O", "% Inhibition": -5, "Z score": 0.72}, {"compound": "CC[C@H]1COCCN1C(=O)c1ccc2c(=O)n(C)cnc2c1", "% Inhibition": -8, "Z score": 1.58}, {"compound": "CCC1(CC)C(NC(=O)Nc2ncncc2OC)CC1OC", "note": "(stereo not given)", "% Inhibition": -13, "Z score": 1.95}, {"compound": "c1ncc2c(n1)CN(Cc1ccc3c(c1)OCCO3)CC2", "% Inhibition": 4, "Z score": -0.61}, {"compound": "COC[C@H]1CN(C(C)=O)CC12CCN(Cc1ccc(Cl)c(F)c1)CC2", "% Inhibition": 7, "Z score": -0.77}, {"compound": "O=C(COc1ccc(Cl)cc1)NCc1cccnc1-c1ccco1", "% Inhibition": -12, "Z score": 2.21}, {"compound": "O=C(NCCN1CCOCC1)c1cn(Cc2cccc(F)c2)nc1OCc1cccc(F)c1", "% Inhibition": -4, "Z score": 0.46}, {"compound": "CCc1nc(C2CCN([C@@H](C)C(=O)Nc3cc(Cl)ccc3OC)CC2)n[nH]1", "% Inhibition": 2, "Z score": -0.29}, {"compound": "COc1ccc(C(=O)NCc2c(C)noc2C)cc1OC1CCN(C(C)C)CC1", "% Inhibition": -18, "Z score": 2.02}, {"compound": "CCn1cc(S(=O)(=O)NCc2noc([C@@H]3CCCO3)n2)cn1", "% Inhibition": -2, "Z score": 0.4}, {"compound": "O=C(Nc1ccc(-n2cccc(C(=O)NCCCc3ccccc3)c2=O)cc1)c1ccc(F)cc1", "% Inhibition": 4, "Z score": -0.55}, {"compound": "CC1CN(C(=O)CS(=O)(=O)C(C)C)CC(C2CC2)O1", "note": "(stereo not given)", "% Inhibition": 1, "Z score": -0.15}, {"compound": "O=C(NCC1CC2CCC1C2)c1cnc2[nH]c(=O)[nH]c2c1", "note": "(stereo not given)", "% Inhibition": 5, "Z score": -0.87}, {"compound": "COc1ccc(N(CCC(=O)Nc2ccn(C)n2)S(=O)(=O)c2ccc(C)cc2C)cc1", "% Inhibition": -3, "Z score": 0.49}, {"compound": "CN(Cc1ccccc1F)C(=O)[C@H]1CC[C@H](Nc2ncccn2)CC1", "% Inhibition": -14, "Z score": 2.31}, {"compound": "CCCCn1c(C)c(CC(=O)NCc2ccncn2)c2c1CCCC2=O", "% Inhibition": 0, "Z score": 0.05}, {"compound": "CN(C(=O)[C@H]1CCCO1)c1ncc(Br)s1", "% Inhibition": 5, "Z score": -0.61}, {"compound": "CS(=O)(=O)C1CN(C(=O)c2cc(Br)co2)C1", "% Inhibition": -7, "Z score": 1.13}, {"compound": "COc1cccc(Cl)c1CC(=O)Nc1ncc(C)[nH]1", "% Inhibition": 1, "Z score": -0.09}, {"compound": "O=c1[nH]c(-c2ccc(Cl)cc2)c[n+]2ccccc12", "% Inhibition": -16, "Z score": 1.87}, {"compound": "O=C(Nc1cccn2c(C3CCC3)nnc12)c1ccc(Cl)s1", "% Inhibition": -4, "Z score": 0.69}, {"compound": "COc1cc(OC)cc(C(=O)Nc2cc(-c3cc(C)n(-c4ccc(F)cc4)c3C)nn2-c2ccccc2)c1", "% Inhibition": 3, "Z score": -0.55}, {"compound": "Nc1nc(CNC(=O)CCC(=O)c2cccc3ccccc23)cs1", "% Inhibition": -15, "Z score": 1.77}, {"compound": "CCc1nc2ccccc2n1[C@@H](CC)C(=O)NCCCn1cnnc1", "% Inhibition": -14, "Z score": 1.86}, {"compound": "C=C(C)Cn1c(Cc2cccnc2)nnc1N1CCO[C@H](C(C)C)C1", "% Inhibition": -7, "Z score": 0.96}, {"compound": "O=C(NCC1CCN(C(=O)c2ccc[nH]2)CC1)C1CCCCC1", "% Inhibition": 3, "Z score": -0.5}, {"compound": "C[C@H](Oc1cc(Cl)cc(Cl)c1)C(=O)NCc1cc[nH]n1", "% Inhibition": -2, "Z score": 0.29}, {"compound": "Cc1cnc(C(=O)Oc2ccc(-c3ccccc3)cc2)cn1", "% Inhibition": 3, "Z score": -0.27}, {"compound": "CCOc1cccc(CN(C)c2cnn(C)c2)n1", "% Inhibition": -5, "Z score": 0.53}, {"compound": "CN(C)Cc1ccc(-c2nc(-c3ccccc3)nn2C2CCN(C)CC2)o1", "% Inhibition": 4, "Z score": -0.43}, {"compound": "NC(=O)c1cc(CCOCc2ccccc2)ccc1F", "% Inhibition": 0, "Z score": 0.04}, {"compound": "Fc1ccccc1[C@@H](NCc1cc[nH]n1)C1CCCC1", "% Inhibition": -9, "Z score": 0.81}, {"compound": "Cc1cc(S(=O)(=O)NC(=O)C2(C)COC2)c(C)o1", "% Inhibition": 6, "Z score": -0.73}, {"compound": "COc1ccc(CN2C(=O)COC[C@H]2C(=O)N2CCN(C)CC2)c(OC)c1", "% Inhibition": 0, "Z score": -0.08}, {"compound": "Cn1ccc([C@@H]2CCCCN2C(=O)c2cc3c(s2)CCCC3)n1", "% Inhibition": -7, "Z score": 1.25}, {"compound": "O=C(c1nccc2ccccc12)N1CCC[C@H](c2nnc3n2CCN(C2CCCC2)C3)C1", "% Inhibition": -18, "Z score": 3.55}, {"compound": "CCN=C(NCCc1ccccn1)N(C)Cc1cccs1", "% Inhibition": -7, "Z score": 0.7}, {"compound": "Cc1ncnc(N2CCN(C(=O)c3cc(CC(C)C)[nH]c(=O)n3)CC2)c1C", "% Inhibition": -11, "Z score": 2.15}, {"compound": "C/C(=C\\c1ccccc1)C(=O)N1CC[C@@H](c2ccccc2)S(=O)(=O)CC1", "% Inhibition": -1, "Z score": 0.14}, {"compound": "CC(C)c1noc(NC2C3CCOC3C2(C)C)n1", "note": "(stereo not given)", "% Inhibition": -6, "Z score": 0.8}, {"compound": "c1cc2c(c(OCc3nnc4n3CCCCC4)c1)OCCO2", "% Inhibition": -22, "Z score": 2.03}, {"compound": "O=C(CCCN1CCCC1=O)NCc1cccnc1N1CCCCCCC1", "% Inhibition": -9, "Z score": 1.24}, {"compound": "Cc1ccc(NC(=O)COC(=O)C2CC(O)CN2C(=O)Cc2ccccc2F)cc1", "note": "(stereo not given)", "% Inhibition": -3, "Z score": 0.38}, {"compound": "CCN1CC(=O)N[C@H]2CN(C(=O)c3cc(C)on3)CC[C@@H]2OCc2cccc(c2)Oc2cc(OC(C)C)cc(c2)C1=O", "% Inhibition": 13, "Z score": -1.77}, {"compound": "O=C(NCCc1ccccc1)Nc1ccccc1-c1cc2ccccc2[nH]1", "% Inhibition": 3, "Z score": -0.51}, {"compound": "COCCN(C[C@@H]1CC=CCC1)C(=O)c1ccncc1", "% Inhibition": -14, "Z score": 1.57}, {"compound": "Cc1cnc(C2CC2)n1CC1CCN(C(=O)COCc2ccccc2)CC1", "% Inhibition": -11, "Z score": 1.5}, {"compound": "O=C(NCC1CCN(C(=O)c2cnc[nH]2)CC1)C1CCCC1", "% Inhibition": -12, "Z score": 2.21}, {"compound": "O=C(NC[C@H](OCCO)c1cccs1)c1cccc(Cl)c1", "% Inhibition": -15, "Z score": 1.71}, {"compound": "O=C(NCC(c1ccco1)c1ccco1)c1ccoc1", "% Inhibition": 14, "Z score": -1.81}, {"compound": "CCCc1nc2ncnn2c(O)c1NC(=O)Nc1ccccc1Br", "% Inhibition": 2, "Z score": -0.44}, {"compound": "Cc1c(C(=O)N2CCNC(=O)[C@@H]2c2ccc(F)cc2)n(C)c2ccc(F)cc12", "% Inhibition": -11, "Z score": 1.2}, {"compound": "CCc1nc(-c2ccccc2)nc(N2CCN(C(=O)COC)CC2)c1Cc1cccc(C)c1", "% Inhibition": -14, "Z score": 1.94}, {"compound": "Cc1cc(F)ccc1-n1cc(C(=O)N(CCc2ccccc2)[C@H]2CCOC2)nn1", "% Inhibition": 1, "Z score": -0.13}, {"compound": "CC1(CNC(=O)C2CC3CCCCC3N2c2ncccn2)CCCO1", "note": "(stereo not given)", "% Inhibition": -5, "Z score": 0.43}, {"compound": "Cc1cc(NS(=O)(=O)CCc2cccc(F)c2)cnc1C", "% Inhibition": -6, "Z score": 1.06}, {"compound": "Cc1ccc(Oc2c(CN(CC(C)C)C[C@@H](O)Cc3ccccc3)c(C)nn2-c2ccccc2)cc1", "% Inhibition": -3, "Z score": 0.51}, {"compound": "O=C(NCc1nccc(N2CCCCC2)n1)c1cccc(F)c1", "% Inhibition": -8, "Z score": 1.28}, {"compound": "c1ncc(CNC23CCC(CC2)C3)cn1", "% Inhibition": 1, "Z score": -0.1}, {"compound": "CCc1nc(C)c(C(=O)N(C)Cc2cc(C3CC3)[nH]n2)s1", "% Inhibition": -7, "Z score": 1.04}, {"compound": "Cc1nsc(N2CC3(CCOCC3)[C@@H]3CCC[C@@H]32)n1", "% Inhibition": -14, "Z score": 1.7}, {"compound": "CC(=O)NC1CCC(N(C)C(=O)c2nn(C(C)(C)C)cc2Br)CC1", "note": "(stereo not given)", "% Inhibition": -4, "Z score": 0.55}, {"compound": "CCOC(=O)c1noc2nc(C)nc(N3CCN(c4ncccn4)CC3)c12", "% Inhibition": -10, "Z score": 1.93}, {"compound": "Clc1ccccc1OCc1noc2c1COCC2", "% Inhibition": -12, "Z score": 1.65}, {"compound": "COCC(O)CN(C)C(=O)C(C)c1ccsc1", "note": "(stereo not given)", "% Inhibition": 2, "Z score": -0.22}]}]}
